Results from ChEMBL document CHEMBL4390690, “Nucleoside protein arginine methyltransferase 5 (PRMT5) inhibitors” (Bioorg Med Chem Lett, 2019).
Values belong to the compound of their own block, whether it stands above or below them.

Tests used:
[1] = target: T1, Protein arginine N-methyltransferase 5 (Homo sapiens, UniProt O14744); assay: Inhibition of PRMT5 (unknown origin) assessed as reduction in SAH formation using histone H2A and SAM incubated for 60 mins by high throughput mass spectrometry
[2] = target: T1, Protein arginine N-methyltransferase 5; assay: Inhibition of PRMT5 in human A549 cells assessed as reduction in sDMA production incubated for 48 hrs by immunohistochemistry analysis; format: cell-based
PRMT5/MEP50 complex [3] = target: T2, PRMT5/MEP50 complex (Homo sapiens, UniProt O14744); assay: Inhibition of full-length human N-terminal FLAG-tagged PRMT5/full length N-terminal His6-tagged MEP50 (unknown origin) expressed in baculovirus infected Sf9 insect cells assessed as reduction of S-adenosyl-L-homocysteine formation using human recombinant histone H2A (1 to 130 residues) as substrate after 1 hr in the presence of S-adenosyl-L-methionine by high throughput mass spectrometry
[4] = target: T1, Protein arginine N-methyltransferase 5; assay: Inhibition of PRMT5 in human A549 cells assessed as reduction in sDMA production after 48 hrs by Hoechst Stain/HCS CellMask Deep Red Stain based immunohistochemistry method; format: cell-based
Z-138 = assay: Antiproliferative activity against human Z138 cells; format: functional, cell-based
A549 [5] = assay: Antiproliferative activity against human A549 cells incubated for 7 days with compound replacement on day 4 by cell titer glo-based luminescence assay; format: functional
PRMT5/MEP50 complex [6] = target: T2, PRMT5/MEP50 complex; assay: Inhibition of PRMT5 (unknown origin)/MEP50 (unknown origin) using histone H2 as substrate preincubated for 15 to 20 mins followed by S-[methyl-3H]adenosyl-L-methionine addition measured after 60 mins by liquid scintillation counting; format: protein-complex assay
A549 [7] = assay: Antiproliferative activity against human A549 cells; format: functional, cell-based
PRMT5/MEP50 complex [8] = target: T2, PRMT5/MEP50 complex; assay: Inhibition of PRMT5 (unknown origin)/MEP50 (unknown origin) using [3H]-SAM and histone H2A incubated for 60 mins by scintillation counting analysis; format: protein-complex assay
[9] = target: T1, Protein arginine N-methyltransferase 5; assay: Inhibition of PRMT5 (unknown origin)
[10] = target: T1, Protein arginine N-methyltransferase 5; assay: Inhibition of PRMT5 in human Granta-519 assessed as reduction in sDMA production after 3 days by Western blotting analysis; format: cell-based
Granta-519 = assay: Antiproliferative activity against human GRANTA-519 cells incubated for 3 days and measured upto 10 days by CCK-8 assay; format: functional, cell-based
A-375 = assay: Antiproliferative activity against human A375 cells measured after 7 days by cell titer glo-based luminescence assay; format: functional; conditions: A-375, 168 h

IC50 [1]: 8.7 nM
IC50 [2]: 51 nM
SMILES: Nc1ncnc2c1ccn2[C@@H]1O[C@H](CN2CC(F)(F)CC23CCNCC3)[C@@H](O)[C@H]1O

IC50 (PRMT5/MEP50 complex [3]): 15.8 nM
IC50 [4]: 79.4 nM
SMILES: Nc1ncnc2c1ccn2[C@@H]1O[C@H](COc2ccc3cccnc3c2)[C@@H](O)[C@H]1O

SMILES: Nc1ncnc2c1ccn2[C@@H]1C[C@H](OCc2ccc3cccnc3c2)[C@@H](O)[C@H]1O
IC50 [4]: 1070 nM

SMILES: Nc1ncnc2c1ccn2[C@@H]1O[C@H]([C@H](O)c2ccc(Cl)c(F)c2)[C@@H](O)[C@H]1O
IC50 (Z-138): 1.4 nM

IC50 (A549 [5]): 6 nM
SMILES: Nc1ncnc2c1ccn2[C@@H]1O[C@H]([C@H](O)c2ccc(F)c(F)c2)[C@@H](O)[C@H]1O

SMILES: Nc1ncnc2c1ccn2[C@@H]1C[C@H](CCc2ccc3ccc(NCC4CC4)nc3c2)[C@@H](O)[C@H]1O
IC50 (PRMT5/MEP50 complex [3]): 0.79 nM
IC50 [4]: 0.4 nM

SMILES: Nc1ncnc2c1ccn2[C@@H]1C[C@H](CCc2ccc3cccnc3c2)[C@@H](O)[C@H]1O
IC50 [4]: 7.9 nM

IC50 [4]: 1.26 nM
SMILES: Cc1cnc2cc(CC[C@H]3C[C@@H](n4ccc5c(N)ncnc54)[C@H](O)[C@@H]3O)ccn12

IC50 (A549 [5]): 16 nM
SMILES: Cc1ncnc2c1ccn2[C@@H]1O[C@H]([C@H](O)c2ccc(F)c(F)c2)[C@@H](O)[C@H]1O

IC50 (PRMT5/MEP50 complex [6]): 116 nM
SMILES: C#Cc1nn([C@@H]2O[C@H]([C@H](O)c3ccc(Cl)cc3)[C@@H](O)[C@H]2O)c2ncnc(N)c12

SMILES: Cc1ncnc2c1ccn2[C@@H]1O[C@H]([C@H](O)c2cccc3c2CNCC3)[C@@H](O)[C@H]1O
IC50 (A549 [7]; Homo sapiens, A549): 350 nM

SMILES: Cc1nc2cc(CC[C@H]3C[C@@H](n4ccc5c(N)ncnc54)[C@H](O)[C@@H]3O)ccn2c1C
IC50 (PRMT5/MEP50 complex [3]): < 0.2 nM
IC50 [4]: 3.98 nM

IC50 (PRMT5/MEP50 complex [8]): 2380 nM
SMILES: C=C(C)C(=O)Nc1ncnc2c1ncn2[C@@H]1O[C@H](CSC)[C@@H](O)[C@H]1O

SMILES: Nc1ccc(CC[C@H]2C[C@@H](n3ccc4c(N)ncnc43)[C@H](O)[C@@H]2O)cn1
IC50 [4]: 6.31 nM

IC50 [4]: 6.31 nM
SMILES: Cc1cnc2cc(CC[C@H]3C[C@@H](n4ccc5c(N)ncnc54)[C@H](O)[C@@H]3O)c(Cl)cn12

IC50 (PRMT5/MEP50 complex [3]): 0.25 nM
IC50 [4]: 0.16 nM
SMILES: Nc1ccc2ccc(CC[C@H]3C[C@@H](n4ccc5c(N)ncnc54)[C@H](O)[C@@H]3O)cc2n1

IC50 [9]: 1 nM
IC50 (A549 [7]; a549): 14 nM
SMILES: Cc1ncnc2c1ccn2[C@@H]1C[C@H](Oc2cc(C(F)F)c(F)c3c2CNCC3C)[C@@H](O)[C@H]1O (stereo in doubt; 38)

IC50 (A549 [5]): 48 nM
SMILES: Nc1ncnc2c1ncn2[C@@H]1O[C@H]([C@H](O)c2ccc(F)c(F)c2)[C@@H](O)[C@H]1O

IC50 (PRMT5/MEP50 complex [6]): 2 nM
IC50 [10]: 134 nM
SMILES: Nc1ncnc2c1ccn2[C@@H]1C[C@H]([C@H](O)c2ccc(F)c(F)c2)[C@@H](O)[C@H]1O

IC50 (A549 [7]; a549): 2 nM
SMILES: Cc1ncnc2c1ccn2[C@@H]1C[C@H](Oc2cc(C(F)F)c(F)c3c2CNCC3C)[C@@H](O)[C@H]1O (stereo in doubt; 39)

IC50 (PRMT5/MEP50 complex [6]): 26 nM
IC50 [10]: 63 nM
SMILES: Nc1ncnc2c1ccn2[C@@H]1C[C@H](Sc2ccc(Cl)cc2)[C@@H](O)[C@H]1O

IC50 (A549 [7]; Homo sapiens, A549): 2 nM
SMILES: Cc1ncnc2c1ccn2[C@@H]1C[C@H](Oc2cc(C(F)F)cc3c2CNCC3)[C@@H](O)[C@H]1O

SMILES: N/N=c1\nc[nH]c2c1ccn2[C@@H]1O[C@H]([C@H](O)c2ccc(Cl)cc2)[C@@H](O)[C@H]1O
IC50 (Granta-519): 98 nM

IC50 (A-375): 11 nM
IC50 (A549 [5]): 5 nM
SMILES: Nc1ncnc2c1ccn2[C@@H]1O[C@H]([C@H](O)c2ccc(Cl)cc2)[C@@H](O)[C@H]1O

SMILES: Nc1ncnc2c1ccn2[C@@H]1O[C@H]([C@H](O)c2ccccc2)[C@@H](O)[C@H]1O
IC50 (A-375): 32 nM

SMILES: Nc1ncnc2c1ccn2[C@@H]1C[C@H](/C=C/c2ccc3cccnc3c2)[C@@H](O)[C@H]1O
IC50 [4]: 51.3 nM

IC50 (PRMT5/MEP50 complex [6]): 17 nM
SMILES: C#Cc1cn([C@@H]2O[C@H]([C@H](O)c3ccc(Cl)cc3)[C@@H](O)[C@H]2O)c2ncnc(N)c12
IC50 (Granta-519): 131 nM

IC50 [1]: 22 nM
IC50 [2]: 81 nM
SMILES: Nc1ncnc2c1ccn2[C@@H]1O[C@H](CN2CCCC23CCNCC3)[C@@H](O)[C@H]1O

IC50 (A549 [5]): 10 nM
SMILES: Nc1ncnc2c1c(F)cn2[C@@H]1O[C@H]([C@H](O)c2ccc(F)c(F)c2)[C@@H](O)[C@H]1O

IC50 (PRMT5/MEP50 complex [8]): 5010 nM
SMILES: C=CC(=O)Nc1ncnc2c1ncn2[C@@H]1O[C@H](CSC)[C@@H](O)[C@H]1O

IC50 (PRMT5/MEP50 complex [3]): 0.32 nM
IC50 [4]: 2 nM
SMILES: Cc1cnc2cc(CC[C@H]3C[C@@H](n4ccc5c(N)ncnc54)[C@H](O)[C@@H]3O)c(F)cn12

SMILES: Nc1ncnc2c1ccn2[C@@H]1C[C@H](COc2ccc3cccnc3c2)[C@@H](O)[C@H]1O
IC50 (PRMT5/MEP50 complex [3]): 20 nM
IC50 [4]: 125 nM

IC50 [9]: 1 nM
IC50 (A549 [7]; Homo sapiens, A549): 140 nM
SMILES: Cc1ncnc2c1ccn2[C@@H]1C[C@H](Oc2cc(OC(F)F)c(F)c3c2CNCC3)[C@@H](O)[C@H]1O
